Assay results from PubChem BioAssay AID1963829 (Molecular Pharmacology Branch, DTP, NCI, 2024).
Some entries of the source have several records that differ or are many. They are shown here; other results are not. There may be further records. The records of an entry are repeats (runs, samples, wells, individuals or studies). Additions like (4×) say how often a value occurs here. A date in brackets names the month of the test.

System: 935938-334-R-J1-PDC complex spheroid viability
Assay: Anticancer human tumor 935938-334-R-J1-PDC patient-derived small intestine adenocarcinoma cell line growth inhibition [POLQ]
Details: stronger effect = lower value
Experimental: Multicellular complex tumor spheroid response to Polymerase (POL) inhibitors (novobiocin, ART-558, RP6685) in combination with a variety of drugs and investigational agents in selected tumor cell lines
The POL inhibitors (novobiocin, ART-558, and RP6685) were evaluated both individually and in combination with standard of care and investigational anticancer small molecules within a complex spheroid model of solid tumors. . Complex spheroids include a stromal component modeled by human endothelial cells (HUVEC) and fibroblasts modeled by human mesenchymal stem cells (MSCs). The concentration ranges selected for each drug and investigational agent were based upon clinically achievable concentrations if the clinical Cmax of the agent was known.
Compounds. The drugs and investigational agents: novobiocin (NSC847541), ART-558 (NSC835418), RP-6685 (NSC848927), peposertib (NSC802822), ceralasertib (NSC780249), elimusertib (NSC800525), camonsertib (NSC841442), AZD-1390 (NSC803789), olaparib (NSC753686), talazoparib (NSC767125), rucaparib (NSC756644), sotorasib (NSC818433), MRTX-1133 (NSC836407), SN-38 (NSC673596), topotecan (NSC609699), epotoside (NSC141540), doxorubicin (NSC123127), gemcitabine (NSC613327), 5-fluorouracil (NSC19893), paclitaxel (NSC125973), vemurafenib (NSC761431), MSA-2 (NSC828583), SN-011 (NSC837082), adavosertib (NSC754352), prexasertib (NSC758257), carboplatin (NSC241240) and oxaliplatin (NSC266046), were obtained from the National Cancer Institute (NCI) Developmental Therapeutics Program Chemical Repository (21). The FDA-approved anticancer drug set is available from the Developmental Therapeutics Program at https://dtp.cancer.gov/organization/dscb/obtaining/. […] The stock solutions were prepared in dimethyl sulfoxide (DMSO, Sigma-Aldrich, St. Louis, MO, cat. D2650), except for the platinum compounds which were prepared in saline (Quality Biological, Gaithersburg, MD, cat. 114-055-101), at 800-fold the tested concentration and stored at -70 degrees C prior to their use. All drugs and investigational agents were tested over a range starting from a high concentration at or near the clinical Cmax and decreasing in half-log increments. If the clinical Cmax for an agent had not been determined, the highest concentration tested was 10 microM, except for SN-38, which was tested at a high concentration of 1 microM.
Cell Culture. All cells were maintained in an incubator at 37 degrees C and 5% CO2 with 95% humidity. The PDC lines were cultured according to standard operating procedures established by the NCI PDMR (https://pdmr.cancer.gov). Table 3 of the manuscript, lists the cell lines along with the number of the three cell types plated to form the mct-spheroids and media for tumor cell growth. After thawing, all PDC lines, except 997537-175-T-J1-PDC and 415267-285-R-J2-PDC, were cultured in Matrigel-coated flasks prepared with a working solution of 1X Ham's F-12 nutrient mix, without supplementation (Thermo Fisher Scientific, cat. 11765054), 100 U/mL penicillin-streptomycin (Thermo Fisher Scientific, cat. 15140122), and 2.5% Matrigel (Corning Inc., Corning, NY, cat. 354248) for the first three passages. The two PDC lines 997537-175-T-J1-PDC and 415267-285-R-J2-PDC were cultured on uncoated flasks. The 857933-349-R-J2-PDC line was cultured in 6C/Colon 1B media containing advanced DMEM/F-12 (Thermo Fisher Scientific, cat. 12634028), 10 mM HEPES (Thermo Fisher Scientific, cat. 15630080), 1X GlutaMAX supplement (Thermo Fisher Scientific, cat. 35050061), 0.1 mg/mL primocin (InvivoGen, San Diego, CA, cat. ant-pm-2), 10% defined fetal bovine serum, heat inactivated (HyClone Laboratories Inc., Logan, UT, cat. SH30070.03HI), 50% L-WRN conditioned media (ATCC, cat. CRL-3276), 1.25 mM N-Acetyl-L-cysteine (Sigma-Aldrich, cat. A9165), 10 mM nicotinamide (Sigma-Aldrich, cat. N0636), 1X B-27 supplement (Thermo Fisher Scientific, cat. 17504044), 1X N-2 supplement (Thermo Fisher Scientific, cat. […]
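Note: spheroids exposed to drugs for seven days before viability read; 100% = DMSO vehicle control wells.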

COC1C(OC(N)=O)C(O)C(Oc2ccc3c(O)c(NC(=O)c4ccc(O)c(CC=C(C)C)c4)c(=O)oc3c2C)OC1(C)C (stereo not drawn)
viability, T/C (compound alone 0.0316 µM): 86.3, 95.7, 88.8, 84.6, 89.7, 75.9, 89.2, 91.2, 79.8, 111, 127, 89.4, 98.3% | viability, T/C (compound alone 0.1 µM): 110, 87, 98, 96.5, 112 (2×), 91.4, 92.4, 99.4, 126, 91, 85.5, 101% | viability, T/C (compound alone 0.316 µM): 111, 76.3, 107, 105, 101, 81.6, 94.2, 86.8, 90.9, 81.1, 87.1, 84.7, 96.9% | viability, T/C (compound alone 1 µM): 88.5, 88.8, 108, 98.1, 69.8, 78, 95.8, 92.2, 91, 77.9, 104, 100, 86% | viability, T/C (compound alone 3.16 µM): 106, 118, 114, 87, 82.4, 84.2, 93, 111, 93.1, 112, 94.9, 100, 101% | viability, T/C (compound alone 10 µM): 95.3, 112, 124, 98.5, 117, 90.5, 97.3, 93.5, 127, 103, 109, 96.6, 96.1%

Nc1ccc(C#CCN(C(=O)Cc2ncc(C(F)(F)F)cc2C(F)(F)F)c2ccc(F)cc2)nn1
viability, T/C (compound alone 0.0316 µM): 89.8, 115, 109, 88.5, 80.4, 94.1, 95.4, 100, 110, 72.4, 87, 73.6, 101% | viability, T/C (compound alone 0.1 µM): 103, 102, 85.6 (2×), 67.2, 85.1, 84.5, 101, 86.1, 122, 72, 82.5, 99.7% | viability, T/C (compound alone 0.316 µM): 105, 82.4, 95.7, 113, 111, 116, 77.9, 93.5, 86.7, 101, 91.9, 86.1, 74.4% | viability, T/C (compound alone 1 µM): 103, 84.2, 95.8, 63.6, 96.3, 95.2, 84.6, 104, 83.7, 89.7, 105, 102, 93.6% | viability, T/C (compound alone 3.16 µM): 112 (3×), 90.9, 97.8, 130, 97.2, 103, 104, 97, 79.4, 88.1, 108% | viability, T/C (compound alone 10 µM): 107, 101, 88, 91.4, 102, 94.7, 105, 89.9, 123, 116, 111, 108, 121%

Cc1cccc(N(C)C(=O)C2C(O)CCN2c2nc(C)cc(C(F)(F)F)c2C#N)c1 (stereo not drawn)
viability, T/C (compound alone 0.0316 µM): 96.7, 102, 78.5, 82.4, 71.4, 118, 109, 83.6% [2023-11] and 87.5, 92.8, 103, 100, 95.8% [2023-12] | viability, T/C (compound alone 0.1 µM): 114, 105, 94.9, 73.8, 94.5, 112, 93.3, 81.4% [2023-11] and 90.7, 90.4, 97.9, 99.3, 86.2% [2023-12] | viability, T/C (compound alone 0.316 µM): 96.2, 118, 94.8, 95.7, 101, 107, 95.9, 112% [2023-11] and 124, 96, 94, 96.2, 89.5% [2023-12] | viability, T/C (compound alone 1 µM): 94.7, 98.3, 99.2, 80.2, 90.4, 112, 98.2, 101% [2023-11] and 87.1, 108, 109, 91.8, 87.2% [2023-12] | viability, T/C (compound alone 3.16 µM): 95.3 (2×), 94.5, 73.9, 108, 97.6, 107, 98.1% [2023-11] and 97.9, 106, 87.5, 95.2, 90.8% [2023-12] | viability, T/C (compound alone 10 µM): 98.1, 101 (2×), 95, 94.2, 89.1, 108, 95.9% [2023-11] and 119, 85.5, 101, 86.4, 89.6% [2023-12]
